Data: patent US20250381289A1 (Genmab, published 2025)
Blank lines part the entries; values can stand above or below the binder they belong to.

How the values were obtained:
[1] = molecular target: T1, cMET on EGFR and cMET co-expressed tumor cell lines (UniProt P08581); assay: flow cytometry, MKN-45 cells (co-express EGFR and cMET; both arms contribute)
T1 construct: whole, on cells

[2] = molecular target: T2, EGFR on EGFR and cMET co-expressed tumor cell lines (UniProt P00533); assay: as above
T2 construct: whole, on cells

[3] = molecular target: T1, cMET on EGFR and cMET co-expressed …; assay: flow cytometry, EBC-1 cells (co-express EGFR and cMET; both arms contribute)
[4] = molecular target: T2, EGFR on EGFR and cMET co-expressed …; assay: as above

T1 sequence (P08581 25-1390 limits assumed): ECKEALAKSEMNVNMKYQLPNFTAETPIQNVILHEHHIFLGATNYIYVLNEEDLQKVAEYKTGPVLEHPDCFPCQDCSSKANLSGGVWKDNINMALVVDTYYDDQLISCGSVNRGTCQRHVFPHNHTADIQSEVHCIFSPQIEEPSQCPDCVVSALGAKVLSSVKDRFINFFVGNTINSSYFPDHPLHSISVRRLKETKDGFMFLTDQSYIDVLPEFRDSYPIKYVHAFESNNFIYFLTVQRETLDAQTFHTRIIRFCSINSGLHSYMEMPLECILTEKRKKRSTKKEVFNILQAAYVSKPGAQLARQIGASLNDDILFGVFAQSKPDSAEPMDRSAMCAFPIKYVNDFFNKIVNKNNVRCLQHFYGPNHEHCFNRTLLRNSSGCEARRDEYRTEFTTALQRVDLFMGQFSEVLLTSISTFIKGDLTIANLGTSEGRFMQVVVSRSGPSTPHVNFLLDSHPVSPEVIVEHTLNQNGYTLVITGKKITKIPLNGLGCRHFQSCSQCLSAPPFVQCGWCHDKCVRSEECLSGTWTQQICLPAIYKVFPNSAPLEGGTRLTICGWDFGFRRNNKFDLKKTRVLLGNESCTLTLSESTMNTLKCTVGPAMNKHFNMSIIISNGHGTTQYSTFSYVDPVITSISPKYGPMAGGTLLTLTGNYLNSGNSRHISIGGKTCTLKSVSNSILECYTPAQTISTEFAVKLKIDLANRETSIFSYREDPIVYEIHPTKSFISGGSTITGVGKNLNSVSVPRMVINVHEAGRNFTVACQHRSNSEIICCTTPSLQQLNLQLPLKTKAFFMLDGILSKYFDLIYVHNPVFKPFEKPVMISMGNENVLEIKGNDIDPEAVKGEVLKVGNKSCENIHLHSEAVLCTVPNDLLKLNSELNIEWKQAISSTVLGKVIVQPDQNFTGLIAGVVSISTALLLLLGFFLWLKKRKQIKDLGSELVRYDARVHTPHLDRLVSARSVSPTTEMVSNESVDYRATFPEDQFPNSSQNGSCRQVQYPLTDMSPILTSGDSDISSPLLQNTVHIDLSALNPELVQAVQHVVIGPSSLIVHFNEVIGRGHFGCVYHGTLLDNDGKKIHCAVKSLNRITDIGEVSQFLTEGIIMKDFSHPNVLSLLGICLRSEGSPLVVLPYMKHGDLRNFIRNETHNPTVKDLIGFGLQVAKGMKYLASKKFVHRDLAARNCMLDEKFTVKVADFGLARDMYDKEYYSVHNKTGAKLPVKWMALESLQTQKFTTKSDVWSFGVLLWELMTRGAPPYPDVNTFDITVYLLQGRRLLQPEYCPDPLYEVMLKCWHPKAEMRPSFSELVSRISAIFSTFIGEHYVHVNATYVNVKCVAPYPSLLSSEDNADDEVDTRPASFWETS

EC50 (read off the curve) [1]: ~1 nM | EC50 (read off the curve) [2]: ~1 nM
B1: Bsab 52 WT (bispecific antibody, human IgG1, kappa)
chain 1: AIQLTQSPSSLSASVGDRVTITCRASQDISSALVWYQQKPGKAPKLLIYDASSLESGVPSRFSGSESGTDFTLTISSLQPEDFATYYCQQFNSYPLTFGGGTKVEIKRTVAAPSVFIFPPSDEQLKSGTASVVCLLNNFYPREAKVQWKVDNALQSGNSQESVTEQDSKDSTYSLSSTLTLSKADYEKHKVYACEVTHQGLSSPVTKSFNRGECGGGGSGGGGSGGGGSGGGGSGGGGSGGGGSGGGGSGGGGSQVQLVESGGGVVQPGRSLRLSCAASGFTFSTYGMHWVRQAPGKGLEWVAVIWDDGSYKYYGDSVKGRFTISRDNSKNTLYLQMNSLRAEDTAVYYCARDGITMVRGVMKDYFDYWGQGTLVTVSS[omitted - human IgG1 constant region with changes]
chain 2: DIQMTQSPSSVSASVGDRVTITCRASQGISNWLAWFQHKPGKAPKLLIYAASSLLSGVPSRFSGSGSGTDFTLTISSLQPEDFATYYCQQANSFPITFGQGTRLEIKRTVAAPSVFIFPPSDEQLKSGTASVVCLLNNFYPREAKVQWKVDNALQSGNSQESVTEQDSKDSTYSLSSTLTLSKADYEKHKVYACEVTHQGLSSPVTKSFNRGECGGGGSGGGGSGGGGSGGGGSGGGGSGGGGSGGGGSGGGGSQVQLVQSGAEVKKPGASVKVSCETSGYTFTSYGISWVRQAPGHGLEWMGWISAYNGYTNYAQKLQGRVTMTTDTSTSTAYMELRSLRSDDTAVYYCARDLRGTNYFDYWGQGTLVTVSSASTKGPSVFPLAPSSKSTSGGTAALGCLVKDYFPEPVTVSWNSGALTSGVHTFPAVLQSSGLYSLSSVVTVPSSSLGTQTYICNVNHKPSNTKVDKKV[omitted - human IgG1 Fc with S354C T366S L368A Y407V (EU numbers)]
notes: also called Basb 52 WT

EC50 (read off the curve) [3]: ~2 nM | EC50 (read off the curve) [4]: ~2 nM
B2: Bsab 43 (bispecific antibody, human IgG1, kappa)
anti EGFR knob chain (scFab): DIQMTQSPSSLSASVGDRVTITCRSSQNIVHSNGNTYLDWYQQTPGKAPKLLIYKVSNRFSGVPSRFSGSGSGTDFTFTISSLQPEDIATYYCFQYSHVPWTFGQGTKLQITRTVAAPSVFIFPPSDEQLKSGTASVVCLLNNFYPREAKVQWKVDNALQSGNSQESVTEQDSKDSTYSLSSTLTLSKADYEKHKVYACEVTHQGLSSPVTKSFNRGECGGGGSGGGGSGGGGSGGGGSGGGGSGGGGSGGGGSGGGGSQVQLQQSGAEVKKPGSSVKVSCKASGYTFTNYYIYWVRQAPGQGLEWIGGINPTSGGSNFNEKFKTRVTITADESSTTAYMELSSLRSEDTAFYFCTRQGLWFDSDGRGFDFWGQGTTVTVSS[omitted - human IgG1 constant region with changes]
anti cMET hole chain (scFab): DIVMTQSPDSLAVSLGERATINCKSSESVDSYANSFLHWYQQKPGQPPKLLIYRASTRESGVPDRFSGSGSGTDFTLTISSLQAEDVAVYYCQQSKEDPLTFGGGTKVEIKRTVAAPSVFIFPPSDEQLKSGTASVVCLLNNFYPREAKVQWKVDNALQSGNSQESVTEQDSKDSTYSLSSTLTLSKADYEKHKVYACEVTHQGLSSPVTKSFNRGECGGGGSGGGGSGGGGSGGGGSGGGGSGGGGSGGGGSGGGGSQVQLVQSGAEVKKPGASVKVSCKASGYIFTAYTMHWVRQAPGQGLEWMGWIKPNNGLANYAQKFQGRVTMTRDTSISTAYMELSRLRSDDTAVYYCARSEITTEFDYWGQGTLVTVSSASTKGPSVFPLAPSSKSTSGGTAALGCLVKDYFPEPVTVSWNSGALTSGVHTFPAVLQSSGLYSLSSVVTVPSSSLGTQTYICNVNHKPSNTKVDKKVEPKSCDKTHTCPPCPAPEAAGGPSVFLFPPKPKDTLMISRTPEVTCVVVDVSHEDPEVKFNWYVDGVEVHNAKTKPREEQYNSTYRVVSVLTVLHQDWLNGKEYKCKVSNKALPAPIEKTISKAKGQPREPQVYTLPPCRDELTKNQVSLSCAVKGFYPSDIAVEWESNGQPENNYKTTPPVLDSDGSFFLVSKLTVDKSRWQQGNVFSCSVMHEALHNHYTQKSLSLSPGK
